# Results reported in the supplement of paper PMC4604168 (melanoma cell lines).
# This is one part of the list. Repeats are few or missing, and single values can be far off.
# Experiments:
# Experiment in all cases: cell count relative to DMSO control; melanoma cells; higher = more viable cells
# Settings in all cases: library dose: standard library concentration; 72 h
# G361 = tested on: G361
# IPC-298 = tested on: IPC-298
# IST-MEL1 = tested on: IST-MEL1
# LB2518-MEL = tested on: LB2518-MEL
# LOXIMVI = tested on: LOXIMVI
# MEL-HO = tested on: MEL-HO
# MZ2-MEL = tested on: MZ2-MEL
# MeWo = tested on: MeWo
# RPMI7951 = tested on: RPMI7951
# RVH-421 = tested on: RVH-421
# 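Further: cells treated in 1,536-well plates, then fixed and DAPI-stained, with nuclei counted from automated high-throughput microscope images.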
Compound,cell count (G361) [%],cell count (IPC-298) [%],cell count (IST-MEL1) [%],cell count (LB2518-MEL) [%],cell count (LOXIMVI) [%],cell count (MEL-HO) [%],cell count (MZ2-MEL) [%],cell count (MeWo) [%],cell count (RPMI7951) [%],cell count (RVH-421) [%]
"CS(=O)(=O)CCNCc1ccc(-c2ccc3ncnc(Nc4ccc(OCc5cccc(F)c5)c(Cl)c4)c3c2)o1 [lapatinib] + COc1ccc(Cl)c(Nc2nc3ccccc3nc2NS(=O)(=O)c2cccc(NC(=O)C(C)(C)N)c2)c1 [XL147] (first compound 4 µM, partner dose 4 µM)",119,91.2,81.6,108,82.5,80.8,66.3,76.3,62.7,74.9
"CN1CCN(c2ccc3nc(-c4c(N)c5c(F)cccc5[nH]c4=O)[nH]c3c2)CC1 [Dovitinib] + O=C(O)c1ccc2c(c1)nc(Nc1cccc(Cl)c1)c1ccncc12 [CX4945] (first compound 0.5 µM, partner dose 2 µM)",41.8,45.4,62.3,45.7,56,45.6,34.9,41.2,55.8,68.4
"C[C@@H](Oc1cc(-c2cnn(C3CCNCC3)c2)cnc1N)c1c(Cl)ccc(F)c1Cl [Crizotinib] + COc1ccc2c(c1)CCC1C2CCC2(C)C(NCCCCCCN3C(=O)C=CC3=O)CCC12 [U73122] (first compound 1 µM, partner dose 2 µM)",92.7,110,101,112,95.6,115,103,84.8,72.6,112
"CNC(=O)c1cc(Oc2ccc(NC(=O)Nc3ccc(Cl)c(C(F)(F)F)c3)cc2)ccn1 [sorafenib] + NCC(=O)Nc1ccc(-n2nc(C(F)(F)F)cc2-c2ccc3c(ccc4ccccc43)c2)cc1 [OSU03012] (first compound 2 µM, partner dose 5 µM)",69.2,66.7,75.1,91.3,97.5,84.2,113,74.2,86.2,82.3
"C=CCNC1=C2C[C@@H](C)C[C@H](OC)[C@H](O)[C@@H](C)/C=C(\C)[C@H](OC(N)=O)[C@@H](OC)/C=C\C=C(/C)C(=O)NC(=CC1=O)C2=O [Tanespimycin] + Clc1ccc(Nc2nnc(Cc3ccncc3)c3ccccc23)cc1 [vatalanib] (first compound 0.01 µM, partner dose 10 µM)",32.3,60.6,61,68.8,94.3,49.4,60.8,67.3,20.8,64.5
"CS(=O)(=O)CCNCc1ccc(-c2ccc3ncnc(Nc4ccc(OCc5cccc(F)c5)c(Cl)c4)c3c2)o1 [lapatinib] + Oc1nc(-c2ccc(C(F)(F)F)cc2)nc2c1CSCC2 [XAV939] (first compound 4 µM, partner dose 10 µM)",62.9,83.1,90.9,98.5,71.4,75.6,58,89.2,74.4,90.5
"C[C@@H](Oc1cc(-c2cnn(C3CCNCC3)c2)cnc1N)c1c(Cl)ccc(F)c1Cl [Crizotinib] + O=S(=O)(c1ccccc1)N(CC(F)(F)F)c1ccc(C(O)(C(F)(F)F)C(F)(F)F)cc1 [T0901317] (first compound 1 µM, partner dose 7 µM)",65.8,75.5,86,75,217,78.7,91.8,64.4,75.5,87.4
"CNC(=O)c1cc(Oc2ccc(NC(=O)Nc3ccc(Cl)c(C(F)(F)F)c3)cc2)ccn1 [sorafenib] + COc1cc(Nc2ncc(F)c(Nc3ccc4c(n3)NC(=O)C(C)(C)O4)n2)cc(OC)c1OC [Tamatinib] (first compound 2 µM, partner dose 2 µM)",71.8,97.4,64.9,73.5,26.6,69.7,86.4,52.3,25.5,83.6
"CNC(=O)c1cc(Oc2ccc(NC(=O)Nc3ccc(Cl)c(C(F)(F)F)c3)cc2)ccn1 [sorafenib] + NC(=O)Nc1cc(-c2cccc(F)c2)sc1C(=O)N[C@H]1CCCNC1 [AZD7762] (first compound 2 µM, partner dose 0.1 µM)",91.5,98.7,87.4,78.7,79.4,90.8,122,79.6,24.1,103
